Source: PubChem BioAssay AID1346428 (National Center for Advancing Translational Sciences (NCATS), 2018)
In all, about 48,000 compounds went through this assay and about 1,200 (2.5%) were called active. Roughly 2% stayed inconclusive and do not appear here.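 The calls were made as follows: active = activation of at least 60% and not above a set upper limit (about 1 call in 100 departs from these limits); inconclusive = activation of 40% to 60%, or above that upper limit; inactive = activation under 40%.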 The list shows a part of the results.

Target: Probable G-protein coupled receptor 32 (Homo sapiens) (UniProt O75388)
Chain of UniProt O75388 (O75388 whole entry, looked up): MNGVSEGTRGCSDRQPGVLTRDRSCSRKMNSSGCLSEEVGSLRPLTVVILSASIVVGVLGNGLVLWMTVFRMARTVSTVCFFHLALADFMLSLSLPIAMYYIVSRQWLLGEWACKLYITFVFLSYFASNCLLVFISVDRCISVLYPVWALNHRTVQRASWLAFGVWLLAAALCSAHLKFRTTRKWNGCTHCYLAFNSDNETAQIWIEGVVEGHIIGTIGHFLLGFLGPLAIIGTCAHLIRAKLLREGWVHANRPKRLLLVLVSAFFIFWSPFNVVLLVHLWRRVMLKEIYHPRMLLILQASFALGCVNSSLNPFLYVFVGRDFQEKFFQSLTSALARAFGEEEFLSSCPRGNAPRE
Assay: qHTS for Agonists of Human Resolvin D1 Receptor DRV1; also: 0% is about no effect
Conditions: CHO-K1 GPR32 beta-arrestin PathHunter luminescence, 90 min; at 76.9 µM; hits give high values; zero percent set by DMSO-only wells
Summary of the method: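 Readings come from a cell-based beta-arrestin complementation format: CHO-K1 GPR32 stable cells (2,500/well) treated 90 min with compounds, then beta-Gal substrate added for 1 h before chemiluminescence imaging.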

SMILES | activation
COc1cccc(N2CCN(C(=O)c3cc4c(=O)oc5ccc(C)cc5c4s3)CC2)c1 | inactive: 3.75%
CCCn1c2ccccc2c2cnn(CC(=O)N3CCCC(C)C3)c(=O)c21 (configuration not stated) | inactive: -13.6%
Cc1ccc(CNC(=O)C2CCN(S(=O)(=O)c3cn(C)cn3)CC2)cc1 | inactive: -7.01%
O=C(NCCCc1nc2ccccc2n1Cc1ccc(Cl)cc1)C1CCCCC1 | inactive: 39.8%
CCc1ccccc1-n1c(C)nc2cc(C(=O)NCCc3ccc(Cl)cc3)ccc21 | inactive: -34.4%
Cc1ccc(-n2ncc(C(=O)NCCN3CCCC3)c2C2CCN(C(=O)OC(C)(C)C)CC2)cc1C | inactive: -26.1%
CC(C)N(Cc1ccccc1)S(=O)(=O)c1ccc(-c2cc(C(F)(F)F)on2)s1 | inactive: -19.8%
COCCCNC(=O)CCc1c(C)nc2nc(-c3cc(OC)cc(OC)c3)nn2c1C | inactive: 2.16%
COCc1c(C(C)C)nc(C(C)C)c(/C=C/[C@@H](O)C[C@@H](O)CC(=O)O)c1-c1ccc(F)cc1 | inactive: 49.5%
CC(C)OCCCNC(=O)CN1C(=O)COc2ccc(S(=O)(=O)N3CCCCCC3)cc21 | inactive: -25.8%
CC(C)NC(=O)N1CCN(S(=O)(=O)c2ccc3c(ccn3C)c2)CC1 | inactive: 9.59%
Cc1ccc(C)c(NC(=O)CN(C)S(=O)(=O)c2ccc3c(c2)CCC(=O)N3)c1 | inactive: 7.35%
CCOC(=O)c1cc(-c2ccc(OC)cc2)n(CCC(=O)NCc2ccc(OC)cc2)c1C | inactive: -24%
COc1ccc(C(=O)NCc2cccnc2)cc1C(=O)NCc1cccnc1 | inactive: -8.88%
Cc1ccccc1C(=O)Nc1nnc2n1CCS2 | inactive: 11.7%
CCCS(=O)(=O)c1nc(S(=O)(=O)c2ccc(C)cc2)c(N(C)Cc2ccccc2)s1 | inactive: -23.3%
COc1cccc(-c2ccc3c(N)c(C(=O)Nc4cc(C(F)(F)F)ccc4OC)sc3n2)c1 | inactive: 6.66%
CCOC(=O)c1sc(NC(=O)C2c3ccccc3Oc3ccccc32)c(C#N)c1C | inactive: 2.55%
Cc1cc(C(=O)N2CCN(c3cccc(C)c3C)CC2)c2c(C)nn(-c3ccccc3)c2n1 | inactive: -10.8%
CCOC(=O)c1c(C)[nH]c(C)c1S(=O)(=O)N1CCCC(C(=O)NCc2cccc(OC)c2)C1 (configuration not stated) | inactive: 17.4%
CCCC(=O)NC(C)c1nc2ccccc2n1Cc1ccccc1 (configuration not stated) | inactive: 18.9%

SMILES | activation
Cc1ccc(C(=O)c2cn(CC(=O)NCc3ccccc3Cl)c3nc(C)ccc3c2=O)cc1 | inactive: -2.2%
COc1ccc(S(=O)(=O)N2CCCN(CC(=O)Nc3ccc(OC)cc3OC)CC2)cc1 | inactive: 15.3%
COc1ccccc1CNC(=O)CCC1N=C2c3ccccc3N=C(SCC(=O)Nc3ccc(N(C)C)cc3)N2C1=O (configuration not stated) | inactive: -0.866%
Cc1c(C(=O)N(C)C)sc2c1c(=O)n(-c1ccc(Cl)cc1)c(=O)n2Cc1ccccc1F | inactive: -1.45%
CCOC(=O)C1CCC(CN(Cc2ccccc2)S(=O)(=O)c2ccc(Br)cc2)CC1 (configuration not stated) | inactive: -22%
Cc1ccccc1Nc1c(-c2cc(Br)ccc2F)nc2ccccn12 | inactive: -34.4%
COc1ccc(/C=C/c2nc(C#N)c(NCc3ccc(F)cc3)o2)cc1OC | inactive: -18.4%
CCOc1ccc(-c2cc(C(=O)Oc3ccc(C#N)cc3)no2)cc1 | inactive: 1.3%
COc1cc(NC(=O)CCS(=O)(=O)c2ccc3c(c2)CC(=O)N3C)cc(OC)c1OC | inactive: -7.22%
Cc1cccc(/C=C(\C#N)c2nc3ccccc3c(=O)[nH]2)c1 | inactive: 0.249%
O=C(CCS(=O)(=O)c1ccccc1)N(Cc1cccnc1)c1nc2ccc(Cl)cc2s1 | inactive: -6.47%
COc1ccc(N2CCN(CCCNC(=O)c3cc(Nc4ccc(OC)cc4OC)nc4ccccc34)CC2)cc1 | inactive: -14%
CCCN1Cc2cccc(C(=O)Nc3ccc(C(C)=O)cc3)c2C1=O | inactive: 9.85%
Cc1cccc(-n2c(=O)c3c(c4cc(C)ccc4n3C)n(CC(=O)N3CCCC3)c2=O)c1 | inactive: 7.29%
CCOc1ccc(N(CC)S(=O)(=O)N2CCCC(C(=O)Nc3ccc(C(C)=O)cc3)C2)cc1 (configuration not stated) | inactive: 2.13%
O=C(CN1C(=O)COc2ccccc21)NCCc1ccc(Cl)cc1 | inactive: -3.65%
CCc1ccc(-n2c(=O)c3c4c(sc3n(CC(=O)N3CCCCC3CC)c2=O)CCC4)cc1 (configuration not stated) | inactive: -18.6%
Cc1ccc(CNC(=O)c2ccc(NC(=O)N3CCSc4ncccc43)cc2)cc1 | inactive: 35%
Cc1c(C(=O)Nc2cccc(Cl)c2)sc2nc3n(c(=O)c12)N=C(c1cccc(Br)c1)CS3 | inactive: 19.2%
Cc1c(CCC(=O)NCCc2ccc(Cl)cc2)c(=O)oc2c(C)c(O)ccc12 | inactive: 25.6%
Cc1c(CNC2CCCCC2)c(C(=O)O)c(C)n1Cc1cccc(Cl)c1 | inactive: -3.66%

SMILES | activation
CCOc1ccccc1NC(=O)c1nc(SC(C)C)ncc1Cl | inactive: -2.24%
CCc1ccc(NC(=O)CN2C(=O)C(c3ccc(Cl)cc3)=NC23CCCCC3)cc1 | inactive: -10.9%
Cc1ccc(NC(=O)Cn2c(=O)n(Cc3nc(C)no3)c(=O)c3ccccc32)c(Cl)c1 | inactive: -18%
Cc1cccc(C)c1OCCCn1c(CCNC(=O)C2CCCCC2)nc2ccccc21 | inactive: 15.6%
COc1ccc(-n2c(C)c(C(C)=O)c3cc(OC(=O)COc4ccccc4)ccc32)cc1 | inactive: 3.41%
CCC(Oc1ccccc1)C(=O)Nc1cc(-c2cccc(C)c2)nn1-c1ccccc1 (configuration not stated) | inactive: -11.9%
CCCCCn1c(CCNC(=O)c2ccc(F)cc2)nc2ccccc21 | inactive: 19.8%
CCOCCCNC(=O)c1cnc2sc(N3CCCCC3)nn2c1=O | inactive: -6.4%
Cc1cc(-c2ccc(C)c(S(=O)(=O)NCc3cccc(Br)c3)c2)on1 | inactive: -21.7%
CCCS(=O)(=O)N1CC(=O)N(c2cccc(Cl)c2C)C(C)(C(=O)NC2CCCC2)C1 (configuration not stated) | inactive: -0.709%
Cc1cc(C)cc(OCC(=O)N(Cc2cccs2)c2ccc(Cl)cc2)c1 | inactive: -39.4%
Cc1ccc2onc(CC(=O)N3CCN(c4cc(Cl)ccc4C)CC3)c2c1 | inactive: -29.7%
Fc1ccc(-c2nn(-c3ccccc3Cl)c3c2cnc2ccccc23)cc1 | inactive: 6.99%
Cc1ccc(CNC(=O)Cc2c(C)c3c(cc(C)c4c(C)coc43)oc2=O)cc1 | inactive: -1.54%
COc1cccc(CNC(=O)Cn2ncn3nc(-c4cccs4)cc3c2=O)c1OC | inactive: -0.986%
COc1ccc(-n2nc(C(=O)N3CCN(c4cccc(C)c4C)CC3)c3c4ccccc4n(C)c3c2=O)cc1Cl | inactive: -10.3%
COc1ccc(CNC(=O)c2nc(SCc3ccccc3F)ncc2Cl)cc1 | inactive: -30.5%
O=C(c1ccc2c(c1)N(Cc1ccc(F)cc1)C(=O)c1ccccc1S2(=O)=O)N1CCCC1 | inactive: -2.89%
CCC(=O)N1CCCc2cc(S(=O)(=O)N3CCC(C(=O)NC4CCCCC4)CC3)ccc21 | inactive: -14.6%
COc1ccccc1Cn1c(CNS(=O)(=O)c2ccc(C(C)C)cc2)nc2cccnc21 | inactive: -30.3%
CC(NC(=O)c1ccc2c(c1)CCN2S(=O)(=O)c1ccccc1)c1ccccc1 (configuration not stated) | inactive: -22.4%

SMILES | activation
Fc1ccccc1Cc1cn2cc(-c3ccc(Cl)cc3)nc2s1 | active: 68.2%
COc1ccccc1NC(=O)c1oc2ccccc2c1NC(=O)c1cccc(OC)c1OC | inactive: -12.1%
CC(C)(C)OC(=O)N1CCC(c2c(C(=O)NCc3cccc(Cl)c3)cnn2-c2ccc(F)cc2)CC1 | inactive: -17.8%
CCOc1ccc(CN2CCc3nc(N4CCN(c5ccccc5OC)CC4)ncc3C2)cc1OC | inactive: -9.11%
O=C(Nc1cc(-c2nc3ccccc3o2)ccc1Cl)c1sc2c([N+](=O)[O-])cccc2c1Cl | inactive: 2.15%
CCc1ccccc1NC(=O)CSc1nc(-c2cccc(Cl)c2)nc2c1Cc1c(CO)cnc(C)c1O2 | inactive: -2.47%
COc1cc(/C=C(\C#N)C(=O)NCC2CCCO2)ccc1O (configuration not stated) | inactive: -0.136%
O=C(NCCCN1CCCCC1)c1sc2ncccc2c1-n1cccc1 | inactive: -1.98%
CC1CCN(C(=O)Cn2c(=O)n(CC3CCC(C(=O)NC(C)C)CC3)c(=O)c3sccc32)CC1 (configuration not stated) | inactive: 1.42%
CCOC(=O)c1ccc(NC(=O)CC2C(=O)N(c3ccc(F)cc3)C(=O)N2Cc2cccnc2)cc1 (configuration not stated) | inactive: -8.7%
COc1ccc(-n2c(-c3ccc(C)cc3)cc3c2CC(C)(C)CC3=O)cc1Cl | inactive: -8.52%
Cc1ccccc1C(=O)Nc1nnc(S(=O)(=O)N(C)Cc2ccccc2)s1 | inactive: -3.44%
COc1ccc(-c2nc(SCC(=O)NC3CCCC3)c(-c3ccc(F)cc3)[nH]2)cc1 | inactive: -22%
CC(C)c1ccc(Cn2c(COc3ccccc3)nc3ccccc32)cc1 | inactive: -17.3%
CCn1nc(C)c2c(-c3ccccc3)cc(=O)n(C(C)C(=O)NCCC(C)C)c21 (configuration not stated) | inactive: -1.89%
COc1ccc(S(=O)(=O)NCC(c2ccco2)S(=O)(=O)c2ccc(C)cc2)cc1F (configuration not stated) | inactive: -14.4%
Cc1ccc(NC(=O)Cn2nc(C(=O)Nc3ccc(C)cc3)ccc2=O)cc1 | inactive: -3.33%
CC1CCN(Cc2c(O)ccc3c(=O)c(Oc4ccccc4Cl)c(C(F)(F)F)oc23)CC1 | inactive: -3.61%
COc1ccc(CNS(=O)(=O)c2ccc(N3CCCCS3(=O)=O)cc2)cc1 | inactive: 15.8%
